In article PMC10979476, “Molecular Deformation Is a Key Factor in Screening Aggregation Inhibitor for Intrinsically Disordered Protein Tau” (ACS Central Science, 2024):

System: total tau in the hippocampus
Assay: Intracerebroventricular injection in 3xTg AD mice, immunohistochemistry with Tau-5
Type: in vivo
Conditions: 10-month-old 3xTg mice, 5 μL 1 mM, 48 h
Excerpt: We next sought to determine whether IPP1 could also promote tau clearance with a transgenic mouse model. Transgenic modeling of AD is a promising tool in understanding the underlying mechanisms. […] The 3xTg-AD is an ideal model for inhibiting tau pathologies. The 3xTg AD model mice expressing APP Swedish, PSEN1M146 V, and MAPT P301L were bred in our AAALAC-accredited facility. The 3xTg mice at 10 months old were randomly allocated into a vehicle group (n = 3) and an IPP1 group (n = 3). For orthotopic brain injections and drug delivery, the mice were anesthetized with halothane (induction 5% and maintenance 1%) and fixed to the stereo tactical frame. The holes were drilled stereotaxically in the skull at a cerebroventricular location (posterior 0.22 mm, lateral 0.9 mm, and ventral 2.3 mm relative to the bregma). Using a microinjection system (Shenzhen RWD Life Technology Co., Ltd.; RWD 69100), IPP1 (5 μL, 1 mM) was diluted with 20% HP-β-CD, which was administered by direct intracranial injection, and 20% HP-β-CD solution was used as a loading control. […] The cell slides were mounted with an anti-fluorescence quencher, and the outer ring is fixed with nail polish. Fluorescence images were obtained under a confocal microscope (Leica TCS SP8). […]

O=C1Nc2cccc(-c3ccc(N4CCCC4)nc3)c2C1=O [IPP1, 4-(6-(pyrrolidin-1-yl)pyridin-3-yl)indoline-2,3-dione]
total tau levels in the hippocampus: reduced total tau levels in the hippocampus
